The values that follow come from PMC12136788.

The other results are listed elsewhere or left out.

The chains are these.
B1: chr12:27888400:27888401:+_ENSG00000061794_ENST00000081029|hu_hu|FALSE|FALSE (ssRNA)
RNA: GGGAGUUCUACAGUCCGACGAUCGGUCUUGCAGUAUCGCUCUCCUACAAGUUUAAUUAAUUUCUUCUUUGCGUGAUCAUCUAAAUUCAAACUGGAAAGCUUUACUCUUAAGACUACUACUCGUGCUCUGGGGUUCCGAACAGACAACAGAGGAUUGAGCAUCA
B2: chr6:136600977:136600978:-_ENSG00000029363_ENST00000527536|hu_mus|motif|central (ssRNA)
RNA: GGGAGUUCUACAGUCCGACGAUCCGAGACCUAGAACUGUAUCUCUUCUUUCUAGAAUGUGAUCUUGAUCUUGAUCGGGAACGGGACUGUGAUCUAGACUUGGAUCUUGAAGAAUGUGAUCUAGAAUUGGAGCGGCCCAUUUCUCAACAGAGGAUUGAGCAUCA
B3: chr12:39756943:39756944:-_ENSG00000139116_ENST00000544797|hu_mus|hu_hu_hu_mus_False|98_108 (ssRNA)
RNA: GGGAGUUCUACAGUCCGACGAUCGGUUUGGCUAUUACCCCCGAGGGAAUCCUGCAAGAGUCUUGUCAGCUUAGAGUCUCUGUAAGGGACAUGGGUGGCUCUCUUGCUCUUGUCCCCCAAGGCGCUGAUUACAUUCCCAAGAGCCAACAGAGGAUUGAGCAUCA
B4: chr5:37680062:37680063:+_ENSMUSG00000029121_ENSMUST00000031004|mus_hu|mus_mus_mus_hu_False|38_58 (ssRNA)
RNA: GGGAGUUCUACAGUCCGACGAUCUUUGGGUGUAGCUGGUACCUCGUACACAGGACCGUCAUACAUGCCCCUGGAAACACUAUGCAAUCCAAAAACCUUGCUUCUGAUUUUGACGCGCUGGUACAGGUGCUCCGGGAACGCCUUCAACAGAGGAUUGAGCAUCA
B5: chr2:73747422:73747423:-_ENSMUSG00000018770_ENSMUST00000018914|mus_mus|FALSE|FALSE (ssRNA)
RNA: GGGAGUUCUACAGUCCGACGAUCCAGCUGACACACACCAUUCUGGGCCCCAUUAAAAACUGUAGAGCCCUCUCCAGUCCUAGUCUCUGGCCGAGAUAACACUGAUGCAGAAAUUGGUCUAUAUGCAACUCUGGAUCCAGCUCGCAACAGAGGAUUGAGCAUCA
B6: 98272209_98272773_3538_CDS_ENSMUSG00000036550_ENSMUST00000098473|mouse|control|control (ssRNA)
RNA: GGGAGUUCUACAGUCCGACGAUCCUCUUGAAUAUUUUCUGGGGGCUCCACAAUCCUCUCAGUUUGAUCUGUGGCCACAAGCAAUGUAUCGAUAUUUGUUGUAUUUAUAGAAGGUGGCACAUCUUUCUUAAAGCUGACUCCCGUCAACAGAGGAUUGAGCAUCA
B7: chr13:99559765:99559766:-_ENSMUSG00000041685_ENSMUST00000040340|mus_hu|FALSE|FALSE (ssRNA)
RNA: GGGAGUUCUACAGUCCGACGAUCCUGAACUUCCUUUAUUAAUUCUUGUAAUUUUCUAACAAGAUCCAAGUGACAAUUUGCUAAUUUCUCUGUAGAUGUUUUGAAUACAUCCCAUACUGGUGCAAAUGUUCCAAGUUGUGAAUACAACAGAGGAUUGAGCAUCA
B8: chr3:176740097:176740098:-_ENSG00000177565_ENST00000430069|hu_mus|hu_hu_hu_mus_True|1_38 (ssRNA)
RNA: GGGAGUUCUACAGUCCGACGAUCUGUUUUGUAUACCACAAAAGGAGGCACUUUCAGUAUCUGCAAAAGGUGUUUAGUCCUAAAACAUACUCACCUAGAGAAUAAUUCAGGAAAACAAUCUGUUACACUCUAAGACCUUAGGAACAACAGAGGAUUGAGCAUCA
B9: chr12:57918738:57918739:+_ENSG00000166987_ENST00000355673|hu_mus|FALSE|FALSE (ssRNA)
RNA: GGGAGUUCUACAGUCCGACGAUCUGCAGGCCCCACCCCAGCCCCACCCGGGGUCACCGGGGCCAGAGGGUCAAAGUUGAAAACCUUGGGUACAUUAAGUGGACACUCCAGACCGCACUUGCAGGUCCCAUCGCUGAGGAGGUACAACAGAGGAUUGAGCAUCA
B10: chr6:13622506:13622507:-_ENSG00000010017_ENST00000011619|hu_hu|FALSE|FALSE (ssRNA)
RNA: GGGAGUUCUACAGUCCGACGAUCCUAGGAAGCAAUGUAAAGCGACAAAAACCUGUCCCCAGUACAUAAUUUAAAAAAUCUAAAUUUCAAAUCAGCAGAGCUGGUCUACUUCCAUGUUGACUAUAUGCCACAAUAUAAGUGUGACAACAGAGGAUUGAGCAUCA
B11: chr9:69870353:69870354:+_ENSMUSG00000033543_ENSMUST00000118198|mus_mus|FALSE|FALSE (ssRNA)
RNA: GGGAGUUCUACAGUCCGACGAUCCGGGACCCUGGGUAGUAGAUAUAGCACAGUGUUGUCAUUUCUGCACCGUGAGAAUAAAUAAAAAAAAGUCUCUUCCAUGUUUCUCUUCAAAAAGCGAUGAAAAUAACAGAAGGUGGCAUACAACAGAGGAUUGAGCAUCA
B12: chr9:95013113:95013114:-_ENSG00000196305_ENST00000443024|hu_hu|hu_hu_hu_mus_False|1_18 (ssRNA)
RNA: GGGAGUUCUACAGUCCGACGAUCCUCAGUCAGAAAGGGCGUGUAAGGGGCCAUCAGUCUGCACAGAGAAAGCAGGACACUGAACAGUGUCUCCAGAGCCAUGACACAGUCUUCCACCCCAUUUUCACCCUUUAACCUUCUGCGCAACAGAGGAUUGAGCAUCA
B13: chr10:124922180:124922181:+_ENSG00000154473_ENST00000368858|hu_hu|FALSE|FALSE (ssRNA)
RNA: GGGAGUUCUACAGUCCGACGAUCCCCAUCAUUACUGAAGGCAAGUGAUGCGAUGCUCGUGGGGUACCGAUGGAAUUGGCACAGUCGCUUUUUGUUAAAUGGAUCCCAAAUAUUUACAAAGCCAUCAGAACCACCUGUGGCAAACAACAGAGGAUUGAGCAUCA
B14: chr10:62544570:62544571:+_ENSG00000170312_ENST00000395284|hu_hu|motif|central (ssRNA)
RNA: GGGAGUUCUACAGUCCGACGAUCACUGACUAUAUUUGGAUGACGAAGUUCCUUUAAUAGAGAAAUUUCCCGAAUUGCAGUACGGGGAACCCCUUCCUCUUCACUUUCUAGUCUGAUUUUUUUCAUGGCUACCACUUGACCUGUCAACAGAGGAUUGAGCAUCA

For this assay, the target named is T1, UNK ZnF1-3 (human, UniProt Q9C0B0 31-174).
T1 sequence: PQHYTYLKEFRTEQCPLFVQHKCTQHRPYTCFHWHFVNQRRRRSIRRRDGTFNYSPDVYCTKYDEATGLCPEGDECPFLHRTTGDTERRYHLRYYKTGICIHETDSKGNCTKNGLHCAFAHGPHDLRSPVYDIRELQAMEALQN
As to the kind of experiment: nsRBNS (natural sequence RNA bind-n-seq); RBNS binding buffer (assumed for nsRBNS): 25 mM Tris pH 7.5, 150 mM KCl, 3 mM MgCl2, 0.01% Triton X-100, 500 ug/ml BSA, 20 U/ml SUPERase-In, 4 C; UNK is unkempt and MSI1 is Musashi-1; names of the RNAs are library labels; protein concentration not given here; high values mean tight binding.
Turning to B1, the binding signal was 0.63 enrichment R.
As to B2, the binding signal was 0.477 enrichment R.
B3 yielded a binding signal of 0.692 enrichment R.
In turn, B4 displayed a binding signal of 0.731 enrichment R.
The same measure for B5: 1.23 enrichment R; for B6: 0.788 enrichment R.
With B7 the figure was 0.704 enrichment R; with B8, 0.645 enrichment R; with B9, 1.33 enrichment R.
In the case of B10, the binding signal is 1.29 enrichment R.
The molecule B11 came in with a binding signal of 1.48 enrichment R.
With B12 the figure was 0.992 enrichment R; with B13, 1.03 enrichment R.
With B14, the binding signal was found to be 0.482 enrichment R.
